Measurements from the antibiotic and cytotoxicity screens of Wong et al. (2023).
This is one part of the list.

system: HepG2; assay: cytotoxicity call (relative viability < 0.9); conditions: 10 µM

Row | SMILES | cytotoxicity call
1 | C[C@@H]1CCCCO[C@@H](CN(C)C(=O)Nc2ccc(F)cc2)[C@H](C)CN([C@@H](C)CO)C(=O)c2cc(NC(=O)Nc3ccc(C(F)(F)F)cc3)ccc2O1 | inactive
2 | CCCC#Cc1cnc2c(c1)C(=O)N([C@H](C)CO)C[C@@H](C)[C@H](CN(C)C(=O)c1ccc3c(c1)OCO3)O2 | inactive
3 | C[C@@H]1CN([C@@H](C)CO)C(=O)c2cccc(NS(=O)(=O)c3ccc(Cl)cc3)c2O[C@H]1CN(C)Cc1ccc(Cl)c(Cl)c1 | inactive
4 | Nc1ccc(Oc2ccccc2)cc1 | inactive
5 | COc1ccc(CN(C)C[C@H]2Oc3ccc(NC(=O)Cn4cnnn4)cc3CC(=O)N([C@@H](C)CO)C[C@@H]2C)cc1 | inactive
6 | CNC[C@H]1OCCCC[C@H](C)Oc2ccc(NC(=O)Nc3cccc4ccccc34)cc2C(=O)N([C@H](C)CO)C[C@@H]1C | inactive
7 | COc1ccc(S(=O)(=O)Nc2ccc3c(c2)C(=O)N([C@H](C)CO)C[C@@H](C)[C@@H](CN(C)S(=O)(=O)c2ccc(C)cc2)O3)cc1 | inactive
8 | CC(=O)Oc1ccn(C)c(=O)c1C#N | inactive
9 | C[C@H](CO)N1C[C@H](C)[C@H](CN(C)C(=O)Nc2ccc(C(F)(F)F)cc2)Oc2c(NC(=O)c3ccc(-c4nccs4)cc3)cccc2C1=O | inactive
10 | CC(CN1CC(=O)NC(=O)C1)N1CC(=O)NC(=O)C1 (configuration not stated) | inactive
11 | O=C(CN1CCOCC1)NCC[C@@H]1CC[C@H](NS(=O)(=O)c2ccc(Cl)cc2)[C@@H](CO)O1 | inactive
12 | C[C@@H]1CN([C@@H](C)CO)C(=O)c2cccc(NC(=O)c3cnccn3)c2O[C@@H]1CN(C)S(=O)(=O)c1ccccc1 | inactive
